Measured values as given in PubChem BioAssay AID485281 (National Center for Advancing Translational Sciences (NCATS), 2010).
The whole screen tested about 350,000 compounds, of which about 260 (0.074%) were called active. Inconclusive means that the source gave no clear call. Such entries were picked first, then a sample of the others. Calls come from the whole dose curve; as a rule, active = well fitted inhibition curve with a large enough effect; inconclusive = small, poorly fitted or top-dose-only effect; inactive = no such curve, though single readings can be large or run the other way. Potencies of inconclusive entries are doubtful fits and often do not repeat.

Target: Ferritin light chain (Equus caballus) (UniProt P02791)
Assay: qHTS Assay for Identification of Novel General Anesthetics; note: nearly all actives have a fitted effect of over 20% in size
Conditions: apoferritin/1-aminoanthracene competitive binding, fluorescence; series mostly up to 77.5 µM
In short: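 Concentration-response curves derived by four-parameter Hill fitting of normalized fluorescence, where compounds displaced 1-AMA from 10 uM horse apoferritin following a brief 10 min room-temperature incubation; propofol titration acted as positive control.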
Potency is the fitted concentration of half-maximal effect; tags give direction and shape of the fitted curve.

UniProt P02791, sequence (P02791 whole entry, looked up): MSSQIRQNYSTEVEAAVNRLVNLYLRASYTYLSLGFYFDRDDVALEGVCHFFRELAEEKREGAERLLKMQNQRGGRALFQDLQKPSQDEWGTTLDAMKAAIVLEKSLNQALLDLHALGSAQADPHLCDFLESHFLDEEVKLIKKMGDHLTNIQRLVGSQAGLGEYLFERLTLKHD

Q: Which Potency does the source give for `COc1cccc(-n2nnc3c(sc4nc(C)cc(C)c43)c2=O)c1` here?
A: inactive

Q: How did the Potency turn out when `COc1ccc(C2C(C#N)=C(N)N(c3sc4c(c3C#N)CCCC4)C3=C2C(=O)CC(C)(C)C3)cc1OC` (stereo not drawn) was run?
A: inconclusive: 7.94 µM [inhibitor, partial curve]

Q: How did the Potency turn out when `CC1=C(c2ccc(C)cc2)S(=O)(=O)N(Cc2ccc(C(=O)NCc3cccc(C)c3)cc2)C1=O` was run?
A: inactive

Q: With `Cc1ccc(NC(=O)CSc2nc(C)c(Cc3ccccc3)c(=O)[nH]2)cc1` as the compound, how does the Potency read?
A: inconclusive: 25.1 µM [inhibitor, single point]

Q: How did the Potency turn out when `COC(=O)c1ccc(NC(=O)CSc2nc3ccc(OC)cc3[nH]2)cc1` was run?
A: inconclusive: 3.98 µM [inhibitor, full curve, poor fit]

Q: `NS(=O)(=O)c1ccc(Nc2nc(-c3ccc(O)cc3O)cs2)cc1` was tested. Which Potency did it give?
A: inactive

Q: `O=C(Nc1cccnc1Cl)c1ccc2c(Cl)c3c(nc2c1)CCC3` was tested. Which Potency did it give?
A: inconclusive: 25.1 µM [inhibitor, partial curve]

Q: How did the Potency turn out when `CC(C)Cc1nc(N2CCOCC2)c(C#N)c2c1COC(C)(C)C2` was run?
A: inactive

Q: For `O=C(COc1ccc2c3c(c(=O)oc2c1)CCC3)NC1CCCCC1`, which Potency is on record?
A: inconclusive: 7.08 µM [inhibitor, partial curve]

Q: How did the Potency turn out when `CCn1c(=O)c(=O)[nH]c2cc(C(=O)NC3CC3)ccc21` was run?
A: inactive

Q: `Clc1cccc(-n2ncc3c(NC4CCCCC4)ncnc32)c1` was tested. Which Potency did it give?
A: inactive

Q: How did the Potency turn out when `CC1CCCCC12NC(=O)N(CC(=O)c1ccc(Cl)s1)C2=O` (stereo not drawn) was run?
A: inconclusive: 25.1 µM [inhibitor, partial curve]

Q: How did the Potency turn out when `Cc1cc(C)c(C)c(OCCCOc2cccc3cccnc23)c1` was run?
A: inconclusive: 39.8 µM [inhibitor, partial curve]

Q: For `CC(C)(C)OC(=O)N1CCC(c2c(C(=O)NCCN3CCC(Cc4ccccc4)CC3)cnn2-c2cccc(Cl)c2)CC1`, which Potency is on record?
A: inactive

Q: With `COC(=O)c1cccc(NC(=O)CCCOc2cccc(C)c2)c1` as the compound, how does the Potency read?
A: inconclusive: 35.5 µM [inhibitor, partial curve]

Q: With `CC(=O)CC(C)(C)Nc1nc2cc([N+](=O)[O-])ccc2o1` as the compound, how does the Potency read?
A: inconclusive: 35.5 µM [inhibitor, single point]

Q: How did the Potency turn out when `CSC1=NCCN1C(=O)C12CC3CC(CC(C3)C1)C2` was run?
A: inconclusive: 14.1 µM [inhibitor, partial curve]

Q: For `Nc1ccc(C(O)(C(F)(F)F)C(F)(F)F)cc1`, which Potency is on record?
A: inconclusive: 17.8 µM [inhibitor, partial curve]

Q: `CCCn1c(/N=C/c2c[nH]c3ccccc23)nc2ccccc21` was tested. Which Potency did it give?
A: inconclusive: 44.7 µM [inhibitor, single point]

Q: How did the Potency turn out when `COc1ccc(CCNC(=O)CO/N=C/c2cc3c(cc2Br)OCO3)cc1OC` was run?
A: inconclusive: 35.5 µM [inhibitor, single point]

Q: With `Cc1nn(-c2ccccc2)c2c1C(c1ccc(F)cc1F)C(C#N)=C(N)O2` (stereo not drawn) as the compound, how does the Potency read?
A: inactive

Q: Which Potency does the source give for `S=c1[nH]nc(-c2ccccn2)n1/N=C/c1ccc(-c2ccccc2Br)o1` here?
A: inconclusive: 28.2 µM [inhibitor, partial curve]

Q: `CC(C)(C)c1ccc(-c2nc(SCCCOc3ccccc3)n3[nH]c(=O)cc3n2)cc1` was tested. Which Potency did it give?
A: inconclusive: 28.2 µM [inhibitor, partial curve]

Q: `Cc1cc(NC(=O)Cn2nnc3sc4c(c3c2=O)CCCC4)no1` was tested. Which Potency did it give?
A: inconclusive: 12.6 µM [inhibitor, partial curve]

Q: With `CCOC(=O)c1ccccc1NC(=O)N(C(C)C)C1CCN(C(C)=O)CC1` as the compound, how does the Potency read?
A: inactive

Q: How did the Potency turn out when `Oc1ccc(N=Nc2ccccc2)cc1` was run?
A: inconclusive: 15.8 µM [inhibitor, single point]

Q: With `Cc1ccc(NC(=O)CSc2nnc(-c3ccco3)c(-c3ccco3)n2)cc1` as the compound, how does the Potency read?
A: inconclusive: 50.1 µM [inhibitor, partial curve, poor fit]

Q: How did the Potency turn out when `O=C(NNc1c(Cl)cccc1Cl)c1c(F)cccc1Cl` was run?
A: inconclusive: 39.8 µM [inhibitor, single point]

Q: With `O=C(Cn1nc(-c2ccccc2)ccc1=O)NCc1ccc(F)cc1` as the compound, how does the Potency read?
A: inconclusive: 6.31 µM [inhibitor, full curve]

Q: For `CCSc1ccc2nnc(-c3cccc(F)c3)n2n1`, which Potency is on record?
A: inconclusive: 31.6 µM [inhibitor, partial curve]

Q: Which Potency does the source give for `COc1ccc(-c2nc(C)c(CCNS(=O)(=O)c3cc(C)c(C)cc3C)s2)cc1` here?
A: inactive

Q: How did the Potency turn out when `C/C(=N\NC(=O)c1c(Cl)cnn1C)c1cccc(NC(=O)c2ccc(C)cc2)c1` was run?
A: inactive

Q: `CCCCc1ccc(NC(=O)c2ccc(=O)n(Cc3cccc(C)c3)c2)cc1` was tested. Which Potency did it give?
A: inactive

Q: For `OCCNCc1ccc(OC2CCCC2)cc1`, which Potency is on record?
A: inconclusive: 50.1 µM [inhibitor, single point]

Q: `O=C(O)c1ccc(C[n+]2c(-c3ccccc3)csc2Nc2ccccc2)cc1` was tested. Which Potency did it give?
A: inactive

Q: For `Cc1cccc(C)c1NC(=O)c1sccc1SCc1cccc(C(F)(F)F)c1`, which Potency is on record?
A: inconclusive: 3.98 µM [inhibitor, full curve, poor fit]

Q: With `O=Cc1cccn1Cc1ccccc1[N+](=O)[O-]` as the compound, how does the Potency read?
A: inconclusive: 39.8 µM [inhibitor, partial curve]

Q: `O=S(=O)(Nc1ccc(S(=O)(=O)N2CCCCCC2)cc1)c1cccs1` was tested. Which Potency did it give?
A: inconclusive: 25.1 µM [inhibitor, partial curve]

Q: Which Potency does the source give for `Cc1ccc2nc(Nc3ccccc3O)nc(-c3ccccc3)c2c1` here?
A: inconclusive: 28.2 µM [inhibitor, partial curve]

Q: For `O=[N+]([O-])c1ccccc1Nc1ccccc1`, which Potency is on record?
A: inconclusive: 14.1 µM [inhibitor, partial curve]

Q: For `COc1cccc(Nc2ncccc2C(=O)Nc2ccccc2)c1`, which Potency is on record?
A: inconclusive: 14.1 µM [inhibitor, partial curve]

Q: How did the Potency turn out when `CCOc1ccc2[nH]c(=O)c(CN(Cc3nnnn3Cc3ccco3)C3CCCCC3)cc2c1` was run?
A: inconclusive: 35.5 µM [inhibitor, partial curve]

Q: For `Cc1ccc(C(=O)N/C(=C/c2ccco2)C(=O)NCCc2c[nH]c3ccccc23)cc1C`, which Potency is on record?
A: inconclusive: 15.8 µM [inhibitor, partial curve]

Q: With `O=S(Cc1ccc(Br)cc1)Cc1nnc(SCc2ccc(Br)cc2)n1-c1ccccc1` (stereo not drawn) as the compound, how does the Potency read?
A: inactive

Q: With `COCC(C)n1c(SCC(=O)N2CCCCC2)nc2ccccc2c1=O` (stereo not drawn) as the compound, how does the Potency read?
A: inactive

Q: Which Potency does the source give for `Cc1nn(CC(=O)NCCc2ccccc2)c(=O)c2ccccc12` here?
A: inconclusive: 22.4 µM [inhibitor, partial curve]

Q: How did the Potency turn out when `CCNc1nc(OC)nc(Oc2ccc(=O)[nH]n2)n1` was run?
A: inactive

Q: With `COc1ccc(C2=NS(=O)(=O)N(C)C(C(=O)Nc3ccc(OC)c(OC)c3)=C2)cc1` as the compound, how does the Potency read?
A: inconclusive: 28.2 µM [inhibitor, partial curve]

Q: `CC(C)(C)c1cc(Cl)ccc1OCCOCCN1CCCC1` was tested. Which Potency did it give?
A: inactive

Q: `Cc1cc(C)n(-c2nncc(-c3ccccc3)n2)n1` was tested. Which Potency did it give?
A: inconclusive: 20 µM [inhibitor, partial curve]

Q: For `CCc1ccc(NC(=O)CSC2=Nc3ccccc3C3=NC(CCC(=O)NCc4ccco4)C(=O)N23)cc1` (stereo not drawn), which Potency is on record?
A: inconclusive: 50.1 µM [inhibitor, single point]

Q: How did the Potency turn out when `O=[N+]([O-])c1ccccc1/C=N/n1c(C(F)(F)F)n[nH]c1=S` was run?
A: inconclusive: 25.1 µM [inhibitor, partial curve]

Q: How did the Potency turn out when `CSc1ccccc1OCc1cc(C(=O)NCCN2CCCC(O)C2)no1` (stereo not drawn) was run?
A: inconclusive: 25.1 µM [inhibitor, partial curve]

Q: For `CC(/C=N/NC(=O)c1n[nH]c2c1CCC2)=C\c1ccccc1`, which Potency is on record?
A: inconclusive: 31.6 µM [inhibitor, partial curve]

Q: `CC(C)OCCCNS(=O)(=O)c1ccc2c(c1)OCCO2` was tested. Which Potency did it give?
A: inconclusive: 35.5 µM [inhibitor, partial curve]

Q: How did the Potency turn out when `CCOc1ccc(N2C(=O)C(Cl)=C(Nc3ccccc3O)C2=O)cc1` was run?
A: inconclusive: 39.8 µM [inhibitor, partial curve]

Q: For `CC1=CC(C)(C)N(C)C(=O)N1c1ccc(Cl)cc1`, which Potency is on record?
A: inconclusive: 12.6 µM [inhibitor, partial curve]

Q: With `CCSc1ncc(Cl)c(C(=O)Nc2ccc(S(=O)(=O)N3CCCCC3)cc2)n1` as the compound, how does the Potency read?
A: inconclusive: 14.1 µM [inhibitor, partial curve]

Q: With `Cc1ccc(N2C(=O)CC(Sc3cccs3)C2=O)cc1` (stereo not drawn) as the compound, how does the Potency read?
A: inconclusive: 25.1 µM [inhibitor, partial curve, poor fit]

Q: For `CCOc1ccccc1C(=O)NCC(=O)OCCOc1cccc(Cl)c1`, which Potency is on record?
A: inconclusive: 25.1 µM [inhibitor, partial curve]

Q: `Cc1sc2nc[nH]c(=O)c2c1-c1ccc(Cl)cc1` was tested. Which Potency did it give?
A: inconclusive: 12.6 µM [inhibitor, partial curve]

Q: `CCCCN(CCCC)CCNC(=O)c1cn(CC)c2ccc(S(=O)(=O)N(C)C3CCCCC3)cc2c1=O` was tested. Which Potency did it give?
A: inconclusive: 1.12 µM [inhibitor, full curve, poor fit]

Q: With `COc1ccc(OCCN2CCN(C(=O)c3ccc(OC)cc3)CC2)cc1` as the compound, how does the Potency read?
A: inactive

Q: For `CC(C)CC(=O)/C(=C\c1ccc(Cl)cc1Cl)n1cncn1`, which Potency is on record?
A: inactive

Q: With `CCOC(=O)Cc1csc(SCC(=O)Nc2sc3c(c2C(N)=O)CCC3)n1` as the compound, how does the Potency read?
A: inconclusive: 44.7 µM [inhibitor, single point]

Q: Which Potency does the source give for `NS(=O)(=O)c1ccc(CCNC(=O)COC(=O)/C=C/c2ccccc2Cl)cc1` here?
A: inconclusive: 50.1 µM [inhibitor, single point]

Q: How did the Potency turn out when `Cc1ccc(C(=O)c2c(NC(=O)c3cccnc3)sc3c2CCCC3)cc1` was run?
A: inconclusive: 31.6 µM [inhibitor, partial curve]

Q: `CCN(CCCNC(=O)CN1N=C(c2ccc(OC)cc2)CCC1=O)c1cccc(C)c1` was tested. Which Potency did it give?
A: inconclusive: 2.51 µM [inhibitor, full curve]
